Data published in the supplement of paper PMC12217912.
The other results are listed elsewhere or left out. Sequences were assembled here from the parent chain. Inactive controls read about 0.05.

B1: TEV protease; numbered along this chain (parent)
chain: MGESLFKGPRDYNPISSSICHLTNESDGHTTSLYGIGFGPFIITNKHLFRRNNGTLVVQSLHGVFKVKDTTTLQQHLVDGRDMIIIRMPKDFPPFPQKLKFREPQREERICLVTTNFQTKSMSSMVSDTSCTFPSGDGIFWKHWIQTKDGQCGSPLVSTRDGFIVGIHSASNFTNTNNYFTSVPKNFMELLTNQEAQQWVSGWRLNADSVLWGGHKVFMVKPEEPFQPVKEATQL

Variants of: B1
Assay: raw area under fraction-flipped curve 0-4 h after induction (AUC4h, not background-subtracted), DNA-recorder readout of cleavage of the substrate (dimensionless); higher = more cleavage of the substrate by the protease variant
Settings: temperature: 34 °C; time window: 0-4 h after rhamnose induction
Description: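 In vivo DNA recorder in E. coli TOP10(DE3) ΔrhaA at 34 °C. Each TEVp single-site mutant (parent TEVp 0) is paired with a single-site variant of the 7-mer TEVs (canonical ENLYFQ|S). The substrate sits between flexible linkers in a Bxb1-sfGFP-TEVs-SsrA fusion, so cleavage stabilises Bxb1 and speeds flipping of a recombination array, read by NGS. The value is the raw area under the fraction-flipped curve over 0-4 h after rhamnose induction (AUC4h), with ≥20 reads per time point. It is not background-subtracted; inactive controls average about 0.047.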
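Note: Bxb1 expression induced with 0.2% (w/v) L-rhamnose at OD600 near 0.5, cultures sampled hourly, flipped fraction per protease–substrate barcode pair counted by paired-end Illumina sequencing.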

MGESLFKGPRDYNPISSSICHLTNESDGHTTSLYGIGFGPFIITNKHLFRRNNGTLVVQSLHGVFKVKDTTTLQQHLVDGRDMIIIRMPKIFPPFPQKLKFREPQREERICLVTTNFQTKSMSSMVSDTSCTFPSGDGIFWKHWIQTKDGQCGSPLVSTRDGFIVGIHSASNFTNTNNYFTSVPKNFMELLTNQEAQQWVSGWRLNADSVLWGGHKVFMVKPEEPFQPVKEATQL [D91I]
area with substrate ENLAFQS: 0.0773
area with substrate ENLCFQS: 0.0568
area with substrate ENLDFQS: 0.063
area with substrate ENLEFQS: 0.0613
area with substrate ENLGFQS: 0.0588
area with substrate ENLHFQS: 0.0647
area with substrate ENLLFQS: 0.0619
area with substrate ENLMFQS: 0.0769
area with substrate ENLNFQS: 0.0656
area with substrate ENLPFQS: 0.047
area with substrate ENLQFQS: 0.0599
area with substrate ENLTFQS: 0.0743
area with substrate ENLVFQS: 0.087

MGESLFKGPRDYNPISSSICHLTNESDGHTTSLYGIGFGPFIITNKHLFRRNNGTLVVQSLHGVFKVKDTTTLQQHLVDGRDMIIIRMPKKFPPFPQKLKFREPQREERICLVTTNFQTKSMSSMVSDTSCTFPSGDGIFWKHWIQTKDGQCGSPLVSTRDGFIVGIHSASNFTNTNNYFTSVPKNFMELLTNQEAQQWVSGWRLNADSVLWGGHKVFMVKPEEPFQPVKEATQL [D91K]
area with substrate ENLAFQS: 0.0876
area with substrate ENLDFQS: 0.0614
area with substrate ENLEFQS: 0.0599
area with substrate ENLFFQS: 0.0736
area with substrate ENLHFQS: 0.0629
area with substrate ENLLFQS: 0.154
area with substrate ENLNFQS: 0.0531

MGESLFKGPRDYNPISSSICHLTNESDGHTTSLYGIGFGPFIITNKHLFRRNNGTLVVQSLHGVFKVKDTTTLQQHLVDGRDMIIIRMPKDFTPFPQKLKFREPQREERICLVTTNFQTKSMSSMVSDTSCTFPSGDGIFWKHWIQTKDGQCGSPLVSTRDGFIVGIHSASNFTNTNNYFTSVPKNFMELLTNQEAQQWVSGWRLNADSVLWGGHKVFMVKPEEPFQPVKEATQL [P93T]
area with substrate ENLAFQS: 0.0581
area with substrate ENLDFQS: 0.0617
area with substrate ENLFFQS: 0.0723
area with substrate ENLGFQS: 0.0702
area with substrate ENLHFQS: 0.0673
area with substrate ENLKFQS: 0.076
area with substrate ENLNFQS: 0.067
area with substrate ENLPFQS: 0.0608

MGESLFKGPRDYNPISSSICHLTNESDGHTTSLYGIGFGPFIITNKHLFRRNNGTLVVQSLHGVFKVKDTTTLQQHLVDGRDMIIIRMPKDFPFFPQKLKFREPQREERICLVTTNFQTKSMSSMVSDTSCTFPSGDGIFWKHWIQTKDGQCGSPLVSTRDGFIVGIHSASNFTNTNNYFTSVPKNFMELLTNQEAQQWVSGWRLNADSVLWGGHKVFMVKPEEPFQPVKEATQL [P94F]
area with substrate ENLAFQS: 0.0542
area with substrate ENLDFQS: 0.0654
area with substrate ENLHFQS: 0.0681
area with substrate ENLKFQS: 0.0848
area with substrate ENLVFQS: 0.0868

MGESLFKGPRDYNPISSSICHLTNESDGHTTSLYGIGFGPFIITNKHLFRRNNGTLVVQSLHGVFKVKDTTTLQQHLVDGRDMIIIRMPKDFPRFPQKLKFREPQREERICLVTTNFQTKSMSSMVSDTSCTFPSGDGIFWKHWIQTKDGQCGSPLVSTRDGFIVGIHSASNFTNTNNYFTSVPKNFMELLTNQEAQQWVSGWRLNADSVLWGGHKVFMVKPEEPFQPVKEATQL [P94R]
area with substrate ENLAFQS: 0.106
area with substrate ENLCFQS: 0.0893
area with substrate ENLDFQS: 0.0691
area with substrate ENLEFQS: 0.0836
area with substrate ENLFFQS: 0.0967
area with substrate ENLGFQS: 0.0924
area with substrate ENLHFQS: 0.0732
area with substrate ENLKFQS: 0.0626
area with substrate ENLLFQS: 0.0754
area with substrate ENLNFQS: 0.0722
area with substrate ENLPFQS: 0.0476
area with substrate ENLVFQS: 0.0772
area with substrate ENLWFQS: 0.0612

MGESLFKGPRDYNPISSSICHLTNESDGHTTSLYGIGFGPFIITNKHLFRRNNGTLVVQSLHGVFKVKDTTTLQQHLVDGRDMIIIRMPKDFPPIPQKLKFREPQREERICLVTTNFQTKSMSSMVSDTSCTFPSGDGIFWKHWIQTKDGQCGSPLVSTRDGFIVGIHSASNFTNTNNYFTSVPKNFMELLTNQEAQQWVSGWRLNADSVLWGGHKVFMVKPEEPFQPVKEATQL [F95I]
area with substrate ENLAFQS: 0.0513
area with substrate ENLDFQS: 0.0667
area with substrate ENLFFQS: 0.0691
area with substrate ENLHFQS: 0.055
area with substrate ENLIFQS: 0.061
area with substrate ENLKFQS: 0.0665
area with substrate ENLMFQS: 0.0592
area with substrate ENLRFQS: 0.0904
area with substrate ENLSFQS: 0.0905
